# Reference: PMC4336329 (PLoS ONE, 2015)
# About 2,200 (0.71%) of roughly 310,000 compounds showed an effect of 50% or more. Effects have a minus sign here. This is one part of the list.
# Molecular target: human ether-à-go-go-related gene (hERG) potassium channel (human, UniProt Q12809)
# Experiment: primary screen, population patch clamp on CHO cells stably expressing hERG
# human ether-à-go-go-related gene (hERG) potassium channel, sequence (Q12809 whole entry, looked up): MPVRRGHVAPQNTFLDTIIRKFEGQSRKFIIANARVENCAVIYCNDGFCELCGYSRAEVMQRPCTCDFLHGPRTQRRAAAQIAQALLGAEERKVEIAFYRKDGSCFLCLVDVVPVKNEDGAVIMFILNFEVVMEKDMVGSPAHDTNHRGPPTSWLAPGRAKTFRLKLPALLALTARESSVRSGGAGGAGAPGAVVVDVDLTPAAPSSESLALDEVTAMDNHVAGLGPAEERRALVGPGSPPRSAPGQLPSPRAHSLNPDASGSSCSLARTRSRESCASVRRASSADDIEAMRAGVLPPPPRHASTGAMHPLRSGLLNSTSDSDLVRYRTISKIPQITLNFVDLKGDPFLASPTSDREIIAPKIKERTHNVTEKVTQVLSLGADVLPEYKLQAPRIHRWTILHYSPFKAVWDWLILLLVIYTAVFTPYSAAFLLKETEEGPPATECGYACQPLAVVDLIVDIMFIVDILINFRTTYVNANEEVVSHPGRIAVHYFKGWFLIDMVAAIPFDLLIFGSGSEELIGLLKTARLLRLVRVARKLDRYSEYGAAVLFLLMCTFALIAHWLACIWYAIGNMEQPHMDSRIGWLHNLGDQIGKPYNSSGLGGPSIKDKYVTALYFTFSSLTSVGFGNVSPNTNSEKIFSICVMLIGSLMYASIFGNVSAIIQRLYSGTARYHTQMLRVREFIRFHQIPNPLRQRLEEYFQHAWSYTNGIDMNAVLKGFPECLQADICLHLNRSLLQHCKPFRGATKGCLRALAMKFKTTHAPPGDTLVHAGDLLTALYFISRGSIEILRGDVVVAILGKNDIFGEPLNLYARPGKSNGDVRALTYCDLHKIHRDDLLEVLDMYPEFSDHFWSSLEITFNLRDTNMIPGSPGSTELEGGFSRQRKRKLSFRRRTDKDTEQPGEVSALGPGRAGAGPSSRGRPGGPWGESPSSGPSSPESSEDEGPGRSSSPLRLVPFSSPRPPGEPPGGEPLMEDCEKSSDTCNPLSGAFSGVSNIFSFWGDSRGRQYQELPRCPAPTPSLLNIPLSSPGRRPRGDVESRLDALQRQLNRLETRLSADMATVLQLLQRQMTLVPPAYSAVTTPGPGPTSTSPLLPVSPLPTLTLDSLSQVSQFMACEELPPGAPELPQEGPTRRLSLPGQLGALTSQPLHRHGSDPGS
row,SMILES,"hERG current change (%, negative = inhibition) at 1uM [%]"
1,CCN1CCN(CC(O)COC(c2ccccc2)c2ccccc2C)CC1.O=C(O)C(=O)O (stereo not drawn),8.96
2,CCOc1ccccc1NC(=O)CSc1nnc(Cc2cccn2C)n1-c1ccc(F)cc1,-8.2
3,CCc1ccccc1NC(=O)N[C@H](C(=O)O)C(C)C,9.34
4,O=C(COC(=O)c1cc[n+]([O-])cc1)Nc1ccc(Br)cc1,0.628
5,CCc1ccc(-c2cc(C)no2)cc1S(=O)(=O)NCCCN1CCN(c2ccccc2)CC1,12.7
6,Cc1cc(NS(=O)(=O)c2ccc(NC(=S)NC(=O)c3ccc(C(C)(C)C)cc3)cc2)no1,16.3
7,COc1ccccc1C(=O)NCC(=O)OCC(=O)Nc1ccc2[nH]c(=O)[nH]c2c1,-10.3
8,CCCCOCCCn1cnc2c([nH]c3cc(OC)ccc32)c1=O,-3.86
9,O=C(COc1cccc(F)c1)NNC(=O)c1cccc(-n2cccc2)c1,11
10,CC(O)CN(Cc1ccc(Cl)cc1)CC(C)O (stereo not drawn),13.8
11,O=C(N/C(=C/c1cccs1)c1nc2ccccc2[nH]1)c1ccccc1,-3.04
12,COc1ccc(CCC(=O)Nc2cc(S(C)(=O)=O)ccc2Cl)cc1,7.15
13,Nn1c(COc2ccccc2F)nnc1SCC(=O)NC1CCCCC1,6.63
14,Cc1oc(C(C)(C)C)cc1C(=O)Nc1cccc(C(=O)O)c1,6.62
15,CCN1C(=O)c2ccc(C(=O)Nc3ccc4c(c3)OCO4)cc2C1=O,9.93
16,OCC1(Cc2cccc(Cl)c2)CCCN(Cc2cn[nH]c2C2CCCCC2)C1 (stereo not drawn),5.48
17,O=C(NCCCc1ccccc1)C(=O)NCC1OCCN1S(=O)(=O)c1ccccc1 (stereo not drawn),5.35
18,Cc1nc2ccc(NC(=O)[C@@H](NC(=O)c3c(F)cccc3F)C(C)C)cc2s1,6.58
19,CC(C)(C)C(=O)c1no[n+]([O-])c1/C(=N/O)C(C)(C)C,-0.746
20,Cc1ccc(C(=O)OCC(=O)NCc2ccccc2)cc1S(=O)(=O)N1CCCCC1,-6.92
21,CC(C)(C)OC(=O)NCCCC(CCCNC(=O)OC(C)(C)C)C(=O)O,3.84
22,Cc1ccccc1N1CCN(C2CCCN(C(=O)c3ccccn3)C2)CC1 (stereo not drawn),7.88
23,CC(=O)Oc1ccc(OC(C)=O)c(SCCCCC[NH+]2CCOCC2)c1.[Cl-],1.19
24,CSc1ccccc1NC(=O)C1CCCN(S(C)(=O)=O)C1 (stereo not drawn),17.6
